Measured values: PMC8346517
Results are given in words; binding and its absence hold for the method and conditions named. For some of these results: In cells and extracts the contact can be indirect. Some results given as binding are weak or reduced against the parent protein; the word gives no strength.

Sequences of proteins named here, by UniProt entry; tags and fusion partners are left off. A change or cut given only in a name is not applied to a line headed by its entry. Residues count along the entry.
UniProt O22456: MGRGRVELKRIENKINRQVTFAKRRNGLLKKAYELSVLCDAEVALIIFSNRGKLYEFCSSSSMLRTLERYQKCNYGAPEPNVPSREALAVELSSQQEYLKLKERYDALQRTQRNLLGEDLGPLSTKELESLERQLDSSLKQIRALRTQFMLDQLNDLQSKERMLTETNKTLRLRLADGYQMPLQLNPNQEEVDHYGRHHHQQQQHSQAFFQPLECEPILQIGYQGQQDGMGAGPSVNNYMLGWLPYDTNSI
SEP3^MI(1-90)-3FLAG: residues 1-90 of O22456
SEP3^M(1-57)-3FLAG: residues 1-57 of O22456
UniProt P17839: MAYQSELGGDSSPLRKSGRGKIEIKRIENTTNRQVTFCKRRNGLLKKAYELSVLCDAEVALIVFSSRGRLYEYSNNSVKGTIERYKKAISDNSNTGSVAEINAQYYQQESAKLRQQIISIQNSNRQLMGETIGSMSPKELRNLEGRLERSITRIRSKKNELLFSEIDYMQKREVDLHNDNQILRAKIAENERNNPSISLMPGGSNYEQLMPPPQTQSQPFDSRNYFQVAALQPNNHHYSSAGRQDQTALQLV
UniProt P35631: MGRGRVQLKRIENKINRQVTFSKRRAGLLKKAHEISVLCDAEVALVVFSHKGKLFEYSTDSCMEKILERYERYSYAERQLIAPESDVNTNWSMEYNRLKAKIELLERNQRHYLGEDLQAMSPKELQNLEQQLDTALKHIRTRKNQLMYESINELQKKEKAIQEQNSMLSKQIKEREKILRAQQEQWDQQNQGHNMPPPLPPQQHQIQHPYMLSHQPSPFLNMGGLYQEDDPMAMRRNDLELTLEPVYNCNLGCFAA
UniProt O64645: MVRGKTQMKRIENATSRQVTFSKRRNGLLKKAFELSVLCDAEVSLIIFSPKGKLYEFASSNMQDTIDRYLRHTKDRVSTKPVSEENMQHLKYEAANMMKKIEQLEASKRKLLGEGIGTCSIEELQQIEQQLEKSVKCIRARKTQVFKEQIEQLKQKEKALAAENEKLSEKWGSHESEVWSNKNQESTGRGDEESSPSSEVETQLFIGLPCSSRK
UniProt P29382: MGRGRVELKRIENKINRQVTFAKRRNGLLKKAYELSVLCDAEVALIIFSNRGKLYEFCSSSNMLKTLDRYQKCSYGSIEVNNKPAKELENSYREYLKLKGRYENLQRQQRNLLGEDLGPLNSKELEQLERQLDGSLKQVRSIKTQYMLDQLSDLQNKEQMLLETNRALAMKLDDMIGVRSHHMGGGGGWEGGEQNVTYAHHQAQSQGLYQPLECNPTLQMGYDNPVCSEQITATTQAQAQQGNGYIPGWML

Legend:
[1] = target: SEP3^M(1-57)-3FLAG (Arabidopsis thaliana) (UniProt O22456); experiment: pull-down; both constructs co-translated in wheat germ extract (double input reaction), completed with PBS (150 mM sodium phosphate pH 7.2, 150 mM NaCl), anti-Myc or anti-FLAG magnetic beads, 1 h at 4 °C, four washes, western blot with anti-c-Myc and anti-FLAG
[2] = target: SEP3^MI(1-90)-3FLAG (Arabidopsis thaliana) (UniProt O22456); experiment: as above
[3] = target: SEP3-3FLAG (full-length, pTnT-SEP3-3FLAG) (Arabidopsis thaliana) (UniProt O22456); experiment: pull-down; sequential purification for seq-DAP-seq: co-translated in a TnT reaction, anti-FLAG magnetic beads in IP buffer (PBS, 0.005% NP40), elution with 3xFLAG peptide, then capture on anti-c-Myc magnetic beads
[4] = target: AGAMOUS (AG), yeast two-hybrid fusion (Arabidopsis thaliana) (UniProt P17839); experiment: two-hybrid; matrix-based Gal4 yeast two-hybrid, targets in both bait and prey vectors; 7 days at 20 °C; scored positive only with growth on all three selective media (-LWH + 1 mM 3-AT, -LWH + 5 mM 3-AT, -LWA) and in both replica
[5] = target: AG^IAP1 (AG with residues 74-107 replaced by residues 58-92 of AP1), yeast two-hybrid fusion (Arabidopsis thaliana) (UniProt P17839+P35631); experiment: as above
[6] = target: APETALA1 (AP1), yeast two-hybrid fusion (Arabidopsis thaliana) (UniProt P35631); experiment: as above

Substance	binding [1]	binding [2]	binding [4]	other results
AG(ΔN)^M(17-73)-5MyC (from UniProt P17839 17-73) (domain or fragment)	binds			
AG(ΔN)^MI(17-107)-5MyC (from UniProt P17839 17-107) (domain or fragment)		binds		
AG^IAP1-5MyC (full-length chimera, pTnT-AG^IAP1-5MyC) (from UniProt P17839 1-73; P35631 58-92; P17839 108-252)				binding [3]: binds
AG^M(1-73)-5MyC (from UniProt P17839 1-73) (domain or fragment)	binds			
AG^MI(1-107)-5MyC (from UniProt P17839 1-107) (domain or fragment)		binds		
AP1^M(1-57)-5MyC (from UniProt P35631 1-57) (domain or fragment)	binds			
AP1^MI(1-92)-5MyC (from UniProt P35631 1-92) (domain or fragment)		binds		
SOC1, yeast two-hybrid fusion (from UniProt O64645 1-214)			no binding	binding [5]: binds
…1 (SEP1), yeast two-hybrid fusion (from UniProt P29382 1-251)			binds	binding [6]: binds
…3 (SEP3), yeast two-hybrid fusion (from UniProt O22456 1-251)			binds	binding [6]: binds
